Patent US8178490B2, “Polybasic bacterial efflux pump inhibitors and therapeutic uses thereof” (priority 2007, dated 2012)
At least one read-out could not be matched to a standard name with certainty.

Key:
[1] = tested on: P. aeruginosa PAM1723, overexpressing the MexABOprM efflux pump; type: cell-based, Pseudomonas aeruginosa; details: lowest inhibitor concentration giving antibacterial activity with levofloxacin at 1/8 of its MIC
From the text: (§1) EPI activity is defined as concentration of an EPI compound that is necessary to achieve ½ of a maximum theoretical effect in increase of antibiotic susceptibility due to efflux inhibition. The maximum theoretical effect, Emax, is defined as a ratio of antibacterial activity of antibiotics (minimal inhibitory concentration, MIC) of pump overexpressing vs. pump lacking strains. […] The strain PAM1723, overexpressing the MexABOprM efflux pump was used as a test strain. […] Azithromycin was used as test antibiotic to assess the EPI activity in Klebsiella pneumoniae. The strain KPM1004 overexpressing the AcrABTolC efflux pump was used as a test strain. […] Thus, EPI activity, that is assessed in K. pneumoniae, is a concentration of an EPI compound that is necessary to increase susceptibility to azithromicin of KPM1004 sixteen fold.
(§2) The EPI activity of the test compounds was assessed by the checkerboard assay (Antimicrobial Combinations, Antibiotics in Laboratory Medicine, Ed. Victor Lorian, M.D., Fourth edition, 1996, pp 333338, which is incorporated herein by reference in its entirety) using a broth microdilution method performed as recommended by the NCCLS (National Committee for Clinical Laboratory Standards (NCCLS), 1997, Methods for Dilution of Antimicrobial Susceptibility Tests for Bacteria That Grow Aerobically, Fourth Edition; Approved Standard. NCCLS Document M7A4, Vol 17 No. 2, which is incorporated herein by reference in its entirety). […] All EPI compounds were readily soluble in water and stock solutions were prepared at a final concentration of 10 mg/ml. Stock solutions were further diluted, according to the needs of the particular assay, in Mueller Hinton Broth (MHB). Stock solution was stored at −80° C. The checkerboard assay was performed in microtiter plates. […] EPIs were diluted in the axis, each row containing a single concentration of an EPI. […] The assay was performed in MHB with a final bacterial (PAM1723 or […]) inoculum of 5 times 10^5 CFU/ml (from an early log phase culture). Microtiter plates were incubated during 20 h at 35° C. and were read using a microtiter plate reader (Molecular Devices) at 650 nm as well as visual observation using a microtiter plate reading mirror.
(§3) Azithromycin potentiation activities of selected inhibitors for K. pneumoniae are reported as MPC16 values.

[2] = tested on: Klebsiella pneumoniae KPM1004 overexpressing the AcrABTolC efflux pump; type: cell-based; details: lowest inhibitor concentration giving antibacterial activity with azithromycin at 1/16 of its MIC; K. pneumoniae KPM1004
From the text: as §1, §2, §3

Row | SMILES | MPC8 (μg/mL) (Levofloxacin, PAM1723) [1] [µg/mL] | MPC16 (μg/mL) Azithromycin, KPM1004) [2] [µg/mL]
1 | NCCN(CCN)NC(=O)C[C@H](N)C(=O)N[C@@H](Cc1ccc(C(F)(F)F)cc1)C(=O)Nc1cnc2ccccc2c1 [Compound 10, 3-[(1S)-2-[N′,N′-bis(2-azaniumylethyl)hydrazinecarbonyl]-1-{[(1S)-1-carbamoyl-2-[4-(trifluoromethyl)phenyl]ethyl]carbamoyl}ethan-1-aminium]quinolin-1-ium tetrachloride] | 0.6 | 1.25
2 | N=C(N)NCCN(CCNC(=N)N)C(=O)C[C@H](N)C(=O)N[C@@H](CCc1ccccc1)C(=O)Nc1cnc2ccccc2c1 [Compound 15, 3-[(1S)-2-[bis({2-[(azaniumylmethanimidoyl)amino]ethyl})carbamoyl]-1-{[(1S)-1-carbamoyl-3-phenylpropyl]carbamoyl}ethan-1-aminium]quinolin-1-ium tetrachloride] | 5 | 2.5
3 | NCCN(CCN)S(=O)(=O)C[C@H](N)C(=O)N[C@@H](Cc1ccc(C(F)(F)F)cc1)C(=O)Nc1cnc2ccccc2c1 [Compound 17, 3-[(1R)-2-[bis(2-azaniumylethyl)sulfamoyl]-1-{[(1S)-1-carbamoyl-2-[4-(trifluoromethyl)phenyl]ethyl]carbamoyl}ethan-1-aminium]quinolin-1-ium tetrachloride] | 2.5 | 2.5
4 | C[N+](C)(C)CCN(CCN)C(=O)CC[C@H](N)C(=O)N[C@@H](Cc1ccc(C(F)(F)F)cc1)C(=O)Nc1cnc2ccccc2c1 [Compound 19, 3-[(2S)-2-[(1S)-3-[(2-aminioethyl)[2-(trimethylaminio)ethyl]carbamoyl]-1-formamidopropan-1-aminium]-3-[4-(trifluoromethyl)phenyl]propanamido]quinolin-1-ium tetrachloride] | 10 | 10
5 | NCC(CN)C[C@H](N)C(=O)N[C@H](CCc1ccccc1)C(=O)Nc1cnc2ccccc2c1 [Compound 23, 3-[(1S)-3-(aminiomethyl)-1-{[(1R)-1-carbamoyl-3-phenylpropyl]carbamoyl}butane-1,4-bis(aminium)]quinolin-1-ium tetrachloride] | 1.25 | 5
6 | Cl.Cl.Cl.Cl.NC1CCN(CCC[C@H](N)C(=O)N[C@H](Cc2ccc(C(F)(F)F)cc2)C(=O)Nc2cnc3ccccc3c2)C1 (stereo partly drawn) [Compound 24, 3-azaniumyl-1-[(4S)-4-azaniumyl-4-{[(1R)-1-[(quinolin-1-ium-3-yl)carbamoyl]-2-[4-(trifluoromethyl)phenyl]ethyl]carbamoyl}butyl]pyrrolidin-1-ium tetrachloride] | 0.6 | 1.25
7 | Cl.Cl.Cl.Cl.N[C@@H]1CN(C(=O)CC[C@H](N)C(=O)N[C@H](Cc2ccc(C(F)(F)F)cc2)C(=O)Nc2cnc3ccccc3c2)C[C@@H]1N [Compound 30, 3-[(1S)-1-{[(1R)-1-carbamoyl-2-[4-(trifluoromethyl)phenyl]ethyl]carbamoyl}-4-[(3R,4S)-3,4-diazaniumylpyrrolidin-1-yl]-4-oxobutan-1-aminium]quinolin-1-ium tetrachloride] | 2.5 | 5
8 | Cl.Cl.Cl.Cl.N[C@@H](CCC(=O)N1C[C@H](N)[C@@H](N)C1)C(=O)N[C@H](Cc1ccc(C(F)(F)F)cc1)C(=O)Nc1cnc2ccccc2c1 [Compound 33, 3-[(1S)-1-{[(1R)-1-carbamoyl-2-[4-(trifluoromethyl)phenyl]ethyl]carbamoyl}-4-[(3S,4S)-3,4-diazaniumylpyrrolidin-1-yl]-4-oxobutan-1-aminium]quinolin-1-ium tetrachloride] | 2.5 | 5.0
9 | NCC(N)C[C@H](N)C(=O)N[C@H](CCc1ccccc1)C(=O)Nc1cnc2ccccc2c1 (stereo partly drawn) [Compound 40, 3-[(4S)-4-{[(1R)-1-carbamoyl-3-phenylpropyl]carbamoyl}butane-1,2,4-tris(aminium)]quinolin-1-ium tetrachloride] | 20 | 10
10 | Cl.Cl.Cl.Cl.N[C@@H](CCC(=O)N1C[C@H](N)[C@@H](N)C1)C(=O)N[C@H](CCc1ccccc1)C(=O)Nc1cnc2ccccc2c1 [Compound 41, 3-[(1S)-1-{[(1R)-1-carbamoyl-3-phenylpropyl]carbamoyl}-4-[(3S,4S)-3,4-diazaniumylpyrrolidin-1-yl]-4-oxobutan-1-aminium]quinolin-1-ium tetrachloride] | 5 | 10
11 | Cl.Cl.Cl.Cl.NCCN(CCN)CCC[C@H](N)C(=O)N[C@H](CCc1ccccc1)C(=O)Nc1cnc2ccccc2c1 [Compound 46, 3-[(1S)-4-[bis(2-azaniumylethyl)amino]-1-{[(1R)-1-carbamoyl-3-phenylpropyl]carbamoyl}butan-1-aminium]quinolin-1-ium tetrachloride] | 0.6 | 1.25
12 | NCCN(CCN)C(=O)C[C@H](N)C(=O)N[C@@H](CCc1ccccc1)C(=O)Nc1ccc2cnccc2c1 [Compound 49] | 5 | 5
13 | Cc1cc(CNC(=O)[C@H](CCc2ccccc2)NC(=O)[C@@H](N)CC(=O)N(CCN)CCN)c(C(F)(F)F)o1 [Compound 67] | >10 | 2.5
14 | Cc1ccc(NC(=O)[C@H](CCc2ccccc2)NC(=O)[C@@H](N)CC(=O)N(CCN)CCN)cc1 [Compound 77] | 5 | 2.5
15 | CCOc1ccc(NC(=O)[C@H](CCc2ccccc2)NC(=O)[C@@H](N)CC(=O)N(CCN)CCN)cc1 [Compound 85] | 5 | 2.5
16 | NCCN(CCN)C(=O)C[C@H](N)C(=O)N[C@@H](CCc1ccccc1)C(=O)Nc1cc(Cl)c(Cl)cc1Cl [Compound 87] | 5 | 0.63
17 | Cc1cc(C)c(NC(=O)[C@H](CCc2ccccc2)NC(=O)[C@@H](N)CC(=O)N(CCN)CCN)c(C)c1 [Compound 88] | 10 | 5
18 | NCCN(CCN)C(=O)C[C@H](N)C(=O)N[C@@H](CCc1ccccc1)C(=O)Nc1cccc(C(F)(F)F)c1 [Compound 90] | 1.25 | 0.60
19 | CC(C)c1ccc(NC(=O)[C@H](CCc2ccccc2)NC(=O)[C@@H](N)CC(=O)N(CCN)CCN)cc1 [Compound 91] | 0.60 | 0.30
20 | NCCN(CCN)C(=O)C[C@H](N)C(=O)N[C@@H](CCc1ccccc1)C(=O)NCc1ccc(OC(F)(F)F)cc1 [Compound 95] | 2.5 | 1.25
21 | Cc1ccc(C)c(CNC(=O)[C@H](CCc2ccccc2)NC(=O)[C@@H](N)CC(=O)N(CCN)CCN)c1 [Compound 96] | 10 | 2.5
22 | NCCN(CCN)C(=O)C[C@H](N)C(=O)N[C@@H](CCc1ccccc1)C(=O)NCc1ccc(F)c(C(F)(F)F)c1 [Compound 102] | 5 | 1.25
23 | COc1ccc(Oc2ccccc2CNC(=O)[C@H](CCc2ccccc2)NC(=O)[C@@H](N)CC(=O)N(CCN)CCN)cc1 [Compound 109] | 2.5 | 0.60
24 | NCCN(CCN)C(=O)C[C@H](N)C(=O)N[C@@H](CCc1ccccc1)C(=O)NCc1ccc(Oc2ccccn2)cc1 [Compound 110] | 5 | 5
25 | NCCN(CCN)C(=O)C[C@H](N)C(=O)N[C@@H](CCc1ccccc1)C(=O)NCc1ccc(C(=O)c2ccccc2)cc1 [Compound 122] | 2.5 | 10
26 | NCCN(CCN)C(=O)C[C@H](N)C(=O)N[C@@H](CCc1ccccc1)C(=O)NCc1ccc(OC2CCOCC2)cc1 [Compound 133] | 5 | 10
